Assay results published in publication PMC12136788.
Some of the results follow.

B1: chr3:179334110:179334217:+|CDS|ENSG00000121864|unk|total|mutant (ssRNA)
RNA: GGGAGUUCUACAGUCCGACGAUCACAUACAAAAAUUUUUCCUCAUGUUUGUGAUGACUGUGGGAAAGGCUUUUCAAGUAUGCCCGAAUAUUGCAAGCAUUUAAAUUCACAUUUAUCUGAAGGGAUUUAUUUAUGUCAAUAUUGCAACAGAGGAUUGAGCAUCA
B2: chr7:149103614:149105566:-|CDS|ENSG00000204947|control|control|control (ssRNA)
RNA: GGGAGUUCUACAGUCCGACGAUCGAGACCCCAGGGCGCUUAGAAAUUCCCACAGGGCCAAGAUGCUAUUCCUGCUAUGUCUGUAGGAAAGUCUUCCAAGUAAGGAGGGAUUUGCUAAAGCACAAACGGAGCCACUCCAAGAGCCAACAGAGGAUUGAGCAUCA
B3: chr12:52430540:52430705:-|CDS|ENSG00000170454|control|control|control (ssRNA)
RNA: GGGAGUUCUACAGUCCGACGAUCCAGGUCGGUGACACAUCCGUGGUGCUGUCCAUGGACAACAACCGCAACCUGGACCUGGAUAGUAUCAUCGCCGAGGUCAAAGCACAAUACGAGGACAUUGCCAACCGCAGCCGGGCCGAGCAACAGAGGAUUGAGCAUCA
B4: chr3:98799072:98799370:-|3pUTR|ENSG00000057019|msi1|FALSE|unique (ssRNA)
RNA: GGGAGUUCUACAGUCCGACGAUCCAAAGCAUCGUUUUAAAGCACAUGGCCUUUUUUUUUUAAUUAUUAGUGGUAGUAAUAUAUAGAAUGUAUUACAUAACUGUCACUGAAGUGGUUGGGGAAAAUGUGGUGACUGAGGUACAGCAACAGAGGAUUGAGCAUCA
B5: chr3:48432659:48432768:-|CDS|ENSG00000164051|unk|FALSE|unique (ssRNA)
RNA: GGGAGUUCUACAGUCCGACGAUCAGUCCCCCGACCAGAGACAGAGAUGUAGAUGUCCUUUCAGCUGCCUUGAAAGAGCAGCUUAGUCAUUCCAGGCAAGUCCAUUCAUGUCUAGAAGGCUUACGAGAGCAGCUUGAUGGCCUACAACAGAGGAUUGAGCAUCA
B6: chr5:154817497:154817598:+|3pUTR|ENSG00000155506|msi1_unk|FALSE|overlapping (ssRNA)
RNA: GGGAGUUCUACAGUCCGACGAUCUUAUUGAGAGUAUCUGCUUUCCAGGCUGAAGUGAUUCAUUCAUUAUUCUAGUCCUGCUUUAGUCCUUUGUAAUUUGUGGUAAUUAUGCUUUUCUUUUUAAUACAAAAAAAUGUAUAAAAACAACAGAGGAUUGAGCAUCA
B7: chr5:151662744:151662768:-|3pUTR|ENSG00000113140|msi1_unk|FALSE|overlapping (ssRNA)
RNA: GGGAGUUCUACAGUCCGACGAUCGGGGCUCUAGGGACUGCCAGGCUGUUUCAGCCAGGAAGGCCAAAAUCAAGAGUGAGAUGUAGAAAGUUGUAAAAUAGAAAAAGUGGAGUUGGUGAAUCGGUUGUUCUUUCCUCACAUUUGCAACAGAGGAUUGAGCAUCA
B8: chr10:110898111:110898227:+|3pUTR|ENSG00000150593|unk|total|mutant (ssRNA)
RNA: GGGAGUUCUACAGUCCGACGAUCAUAAGAACUCUUGCAGUCUCCGAUGUUAUAAAAAUAUAUAUCUGAAUUGUAAGAGUUGUCCGCACAAGUUUUUUUUUUUUUUUUUUUUAAGCACUUGUUUUGGGUACAAGGCAUUUCUGACAACAGAGGAUUGAGCAUCA
B9: chr12:76028505:76028606:-|3pUTR|ENSG00000139289|msi1|total|mutant (ssRNA)
RNA: GGGAGUUCUACAGUCCGACGAUCAAGUCUUGGUCAGUAUUUUUCCAGCAUUUAAAUUGAAACGGUCAGUAUCCGACCACUGCCCGGUUAUGCCGUCAAGAAAUAAAAACCGAAUUACAUGCUACAGAUGUCUUUAUUCUCCUUCAACAGAGGAUUGAGCAUCA
B10: chr1:93361585:93361687:+|3pUTR|ENSG00000117505|unk|total|mutant (ssRNA)
RNA: GGGAGUUCUACAGUCCGACGAUCUUUAACUUGCCGUUACCGUUUACUUAUUGUUUUCCGAAUUACUUUUACAUUUUCCCAACCCGAUGGCCCCGAGUCCAACAUUACCUUUUGAGAUGACAUUAUUGUCUCCAUAAUUGAGUGCAACAGAGGAUUGAGCAUCA
B11: ENSG00000136451:be:win_1351|CDS|ENSG00000136451|bound_else_gene|NA|bound_elsewhere_windowed (ssRNA)
RNA: GGGAGUUCUACAGUCCGACGAUCCCAUUAUCCAUGACCUCUCCUUUAACACUCACUACCCCAGUCAACCUCCCCACCCCCGUCACUGCCCCAGUGAAUAUAGCACACCCUGUCACCAUCACAUCUCCAAUGAAUCUACCCACACAACAGAGGAUUGAGCAUCA
B12: ENSG00000110321:stop:overlap|stop_codon|ENSG00000110321|stop_codon|NA|stop_codon (ssRNA)
RNA: GGGAGUUCUACAGUCCGACGAUCACAACUCCGCAAACGAAAAAGAACGACAUGAUGCAAUCUUCAGGAAAGUAAGAGGGAUCUAGGGGUGUUUAUUCCUGCUCCUAUGGCUCAAGGGAUGAGAAGUGACUUCUUUCUGGAGGGCAACAGAGGAUUGAGCAUCA
B13: chr3:23980279:23980388:+|3pUTR|ENSG00000174738|unk|FALSE|unique (ssRNA)
RNA: GGGAGUUCUACAGUCCGACGAUCUUUUUCUUUUCCAAUAUAAAGUUUGCUGAAUGUACAAGAAGAGUUUAUCACUUAGGAUAUAGAAUUUUUUUAGGGGUUGGGGGAGGGGAUCUGUUAGGAAACUGUUACCUAUAAACAAAGCAACAGAGGAUUGAGCAUCA
B14: chr4:87981664:87981765:+|CDS|ENSG00000118785|msi1|total|mutant (ssRNA)
RNA: GGGAGUUCUACAGUCCGACGAUCCACUGAUUUUCCCACGGACCUGCCAGCAACCGAAGUUUUCACUCCAGUUGUCCCCACAGCCGACACAUAUGAUGGCCGAGGUGACCGUGUGGUUUAUGGACUGAGGUCAAAAUCUAAGAACAACAGAGGAUUGAGCAUCA
B15: chr1:225496770:225496921:-|3pUTR|ENSG00000154380|msi1|FALSE|unique (ssRNA)
RNA: GGGAGUUCUACAGUCCGACGAUCUUUUUUAAUUGCAGACAGUAAUGCAUGUCACACUAAUAUGUAGUGGCCUUUUCAAGGCCUAGUCCCAGGGAAAACAUUUUGUAGAGUAUAGGGGAGUGGGAGGAAGGGGAGGAAUAAUUUCAACAGAGGAUUGAGCAUCA
B16: chr8:78602526:78602623:+|3pUTR|ENSG00000171033|msi1_unk|total|mutant (ssRNA)
RNA: GGGAGUUCUACAGUCCGACGAUCUUGUAUGUUGAUGAGUUGAUUAAGUCUAACAGAUUCAUCAAGACUCCAUUGCUUUAUUACCGAGACAUUUGAAAAUAUCCAUUAAUGUGAAUAUCACCUGAAUUCAGUCUGUUUGGUGUCCAACAGAGGAUUGAGCAUCA
B17: ENSG00000198589:be:win_1301|CDS|ENSG00000198589|bound_else_gene|NA|bound_elsewhere_windowed (ssRNA)
RNA: GGGAGUUCUACAGUCCGACGAUCCAUCUCCUAAGGACAACCCUUCAAUUUUUGUUCAUUCACCACAUGCACUCAUGCUCCAGGAUGUAAAGGCAGUUUUAACACAUUCCAUCCAAAGUGCAAUGCAUUCAAUUGGAGGAGUACCAACAGAGGAUUGAGCAUCA
B18: chr12:64421256:64421371:+|CDS|ENSG00000184575|unk|FALSE|unique (ssRNA)
RNA: GGGAGUUCUACAGUCCGACGAUCGUUGACUUCCUGGCCAGAUUUUCUAAGUUGGUAAAUGGAAUGGGACAGUCAUUGAUAGUUAGUUGGAGUAAAUUAAUUAAGAAUGGGGAUAUUAAGAAUGCUCAAGAGGCACUACAAGCUCAACAGAGGAUUGAGCAUCA
B19: chr3:186789481:186789582:+|3pUTR|ENSG00000156976|msi1_unk|total|mutant (ssRNA)
RNA: GGGAGUUCUACAGUCCGACGAUCUUGGGGUGGGUAUAAAAGAUGGGGUCUGUAAAAUCUUUCUUUCUCCGAAAUUUAUUUCCCCGUUCUGCCGAAAUGGUUGUAUCCGAUGUUCUCUAUCAUUUAAUAAUAUACUUGUGGACUCAACAGAGGAUUGAGCAUCA
B20: chr5:80437677:80437780:+|CDS|ENSG00000039319|unk|FALSE|unique (ssRNA)
RNA: GGGAGUUCUACAGUCCGACGAUCUUCCUUUCAGGAAGAUAAGACUGUUAUAAAACAAUCUGCACAAGAAGACUCAAAAAGUUUAGACCUUAAGGAUAAUGAUGUAAUCCAAGAUUCCUCUUCAGCUUUACAUGUUUCCAGUAACAACAGAGGAUUGAGCAUCA
B21: chr15:34980028:34980129:-|3pUTR|ENSG00000198146|msi1|FALSE|unique (ssRNA)
RNA: GGGAGUUCUACAGUCCGACGAUCGGUUCUGUUAUUUAAGCCUGUUCUAAGUUUGAUCAAAUGGCAAUGACUAGGUCUAGUUUUAGUUUUUAUUUUUGCAGGAGUCUAUUGCUAAAGAAUUUUAUUUUGAUGCUUGUUAAAUUUCAACAGAGGAUUGAGCAUCA
B22: chr1:149903635:149903737:-|3pUTR|ENSG00000159164|unk|FALSE|unique (ssRNA)
RNA: GGGAGUUCUACAGUCCGACGAUCGGCUGCUUUCUUUGGUGCCCUCCCCUCACCCCACUGUAGCUGUGACGUGUUGUAGUUUUUAGAUGUUUGUAAAAUGUUUAAAAAAAUGUUAAAAGGAAAAAAGUGAAAAUAACAAAAAAGCAACAGAGGAUUGAGCAUCA

Target: T1, UNK ZnF1-6 (called full-length) (human, UniProt Q9C0B0 30-357)
T1 sequence: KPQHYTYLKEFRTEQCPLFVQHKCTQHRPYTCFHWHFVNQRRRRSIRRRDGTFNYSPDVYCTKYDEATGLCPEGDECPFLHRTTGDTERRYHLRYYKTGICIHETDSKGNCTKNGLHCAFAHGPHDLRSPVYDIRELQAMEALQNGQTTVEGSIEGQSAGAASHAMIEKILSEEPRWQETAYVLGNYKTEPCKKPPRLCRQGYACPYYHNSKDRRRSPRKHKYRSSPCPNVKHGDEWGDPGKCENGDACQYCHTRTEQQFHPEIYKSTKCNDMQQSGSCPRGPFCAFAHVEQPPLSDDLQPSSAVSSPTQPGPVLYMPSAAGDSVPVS
Test: nsRBNS (natural sequence RNA bind-n-seq); RBNS binding buffer (assumed for nsRBNS): 25 mM Tris pH 7.5, 150 mM KCl, 3 mM MgCl2, 0.01% Triton X-100, 500 ug/ml BSA, 20 U/ml SUPERase-In, 4 C; UNK is unkempt and MSI1 is Musashi-1; names of the RNAs are library labels; protein concentration not given here; high values mean tight binding

| Binder | binding signal [enrichment R] |
| --- | --- |
| B1 | 0.481 |
| B2 | 0.58 |
| B3 | 0.641 |
| B4 | 1.95 |
| B5 | 0.616 |
| B6 | 1.93 |
| B7 | 1.75 |
| B8 | 1.54 |
| B9 | 0.271 |
| B10 | 4.48 |
| B11 | 1.83 |
| B12 | 0.852 |
| B13 | 3.03 |
| B14 | 0.533 |
| B15 | 7.59 |
| B16 | 0.349 |
| B17 | 0.354 |
| B18 | 0.995 |
| B19 | 1.45 |
| B20 | 0.457 |
| B21 | 9.54 |
| B22 | 0.96 |
